Experimental data reported in ChEMBL document CHEMBL4888484, “Replenishing the malaria drug discovery pipeline: Screening and hit evaluation of the MMV Hit Generation Library 1 (HGL1) against asexual blood stage Plasmodium falciparum ,using a nano luciferase reporter read-out” (2022).
In all, about 150,000 compounds went through this assay and about 540 (0.36%) showed an effect of 50% or more. Some of the results follow.

system: Plasmodium falciparum; assay: Primary screen in NF54 nanoGlo assay, in single point, at 2uM, 72h; a lower Z score goes with more inhibition; assay type: functional, Erythrocyte; conditions: timepoint 72 hour

SMILES | % Inhibition | Z score
O=C(NCc1nc(-c2cnccn2)n[nH]1)c1conc1-c1ccccc1 | -4% | 0.86
CCc1cc(C(=O)NCc2ccc(OC)cc2)nc2cc(-c3ccccn3)nn12 | 3% | -0.33
COc1ccccc1CN(Cc1nnc(C)s1)c1ccc2[nH]c(=O)[nH]c2c1 | -13% | 1.77
COc1cccc(-c2nc3nc(-c4ccccc4)oc3c(=O)[nH]2)c1 | 4% | -0.55
O=C(c1ccc2ccccc2n1)N1CCC[C@H]1c1nc2ccccc2s1 | 12% | -1.34
Cc1ccc(Cl)cc1NC(=O)C12CCC(C)(C(=O)C1=O)C2(C)C (stereo not given) | -17% | 3.25
COC1CCN(C(C)(C)CNC(=O)c2c[nH]c(C(F)(F)F)c2)CC1 | -12% | 1.57
CC(C)CCNC(=O)C(=O)Nc1ccc(Br)cc1 | -5% | 0.59
COCC(NC(=O)NCC(O)c1cc(C)cc(C)c1)C1CC1 (stereo not given) | 5% | -0.68
Cc1cccc(OCc2ccc(OCC(F)(F)F)nn2)n1 | 24% | -2.43
Cc1ccc(CN2CCn3nc(CN(C)Cc4c(C)noc4C)cc3C2)o1 | -2% | 0.27
Cc1nc(CNC(=O)C2(c3cccc(Cl)c3)CC(C)C2)n[nH]1 (stereo not given) | 0% | -0.06
CCc1cc(CN(C)C(=O)N[C@H]2CC=CC[C@@H]2C(N)=O)on1 | -3% | 0.37
CCN1CCCCC1C(=O)NCC(O)c1ccc(OC(F)F)cc1 (stereo not given) | -18% | 1.61
CC(=O)N[C@@H]1c2ccccc2C2(CCN(C(=O)c3cnccn3)CC2)[C@H]1OCc1ccccc1 | 13% | -1.65
O=C(NCc1ccccn1)NC1CCCC1 | 16% | -1.81
Cc1ccc(NCCCn2ccnc2-c2ccccc2C(=O)O)nc1 | -17% | 1.89
CCNC(=O)N1CCC(Cc2ncc(C)n2Cc2ccc(F)cc2)CC1 | 6% | -1.07
Cc1cccc(-n2cnnc2[C@@H]2CCN2Cc2ccccc2)c1 | -15% | 2.13
COC(=O)COc1cc(-c2ccc(Cl)cc2)nc2ccc(NC(=O)c3cccc(F)c3)cc12 | -14% | 2.44
CC(NC(=O)N1CCC(C)C1CO)c1cnn(Cc2ccccc2)c1 (stereo not given) | -5% | 0.68
O=C(c1cccnc1)N1C[C@H]2CC[C@@H](C1)N(C(=O)c1cc3ccccc3[nH]1)C2 | -8% | 1.61

SMILES | % Inhibition | Z score
Cc1ccc(-c2nc3ccc(C)cn3c2NC(=O)C2C[C@H]2c2ccccc2)cc1 (stereo not given in full) | -5% | 0.73
Cc1[nH]nc(CNCCCc2ccccc2F)c1Cl | 1% | -0.27
Cc1cccc2c1O[C@H](C(=O)N(C)Cc1c(C)nc3sccn13)C2 | -13% | 1.32
Cc1ccc(CNC(=O)Nc2cccc3ncccc23)cc1 | -8% | 1.15
O=C(NCCn1ccnc1)c1ccco1 | -7% | 1.08
CCCn1c(=O)[nH]c2c(C(=O)N3CCN(c4ccccc4F)CC3)snc2c1=O | -11% | 1.83
O=C(NCc1ccc(-n2cncn2)nc1)c1ccc2c(c1)CCCC2 | 1% | -0.18
N#Cc1ccc(N2CCCC(NC(=O)C3CCCOC3)C2)c(F)c1 (stereo not given) | -4% | 0.83
COC(=O)N[C@H](C(=O)Nc1ccnnc1)C(C)C | -2% | 0.35
CC=CCS(=O)(=O)CC(=O)N(C)CC1CCCCC1 | -11% | 1.65
C#C[C@H](C)NC(=O)Nc1cccn(CC(F)(F)F)c1=O | -14% | 2.58
CCc1csc(CNCc2c[nH]cn2)n1 | -16% | 1.95
CO[C@@H](CNC(=O)c1ccoc1)c1cc2ccccc2o1 | -4% | 0.65
Cc1cc(C)n(Cc2nc(Cc3ccccc3)no2)n1 | -10% | 0.91
CN(CC(=O)NC1CCCCCCC1)S(=O)(=O)c1ccccc1 | -5% | 0.74
O=C(Nc1nc(-c2ccccc2)cc(-c2ccccc2)n1)c1ccccc1F | -15% | 2.77
Cc1nc(C)c(CC(=O)Nc2nc3ccccc3s2)s1 | -12% | 1.99
Cc1ccc(CN2c3ccc(F)cc3OC[C@@H]2CC(=O)NCc2ccco2)cc1 | -5% | 0.97
Cc1nnc([C@H](C)NS(=O)(=O)c2ccc3c(c2)OCCCO3)o1 | -7% | 1
CCN1CCCC[C@@H]1CNCc1cnc(C)nc1 | -7% | 0.77
CC(C)Cc1nsc(N2CCN(C)[C@]3(CCOC3)C2)n1 | 3% | -0.42
COc1ccc(CN2C(=O)N[C@@H](CC(=O)Nc3ccc4c(c3)OCO4)C2=O)cc1 | -3% | 0.39

SMILES | % Inhibition | Z score
Cc1ccc2ncccc2c1CN(C)CCCN(C)C | -5% | 0.95
O=C(c1ccc2nccnc2c1)N1CCC2(CCO2)CC1 | 1% | -0.18
OC1(Cc2cc(-c3ccccc3)no2)CCN(CC2CCCC2)CC1 | -2% | 0.33
Cc1c(O)cccc1C(=O)NCC1(c2ccccn2)CC1 | -15% | 2.9
CC1(C)[C@@H](NC(=O)Nc2cnn(CC(=O)N3CCOCC3)c2)[C@@H]1c1ccccc1 | 17% | -1.99
Cc1nnc2sc(-c3cnn(-c4ccccn4)c3C(F)(F)F)nn12 | 35% | -4.46
Cc1n[nH]nc1C(=O)Nc1nc(C)c(Cc2ccccc2Cl)s1 | -12% | 1.64
Cc1occc1CN[C@@H]1CCOc2c(F)cccc21 | -10% | 1.89
C#CCOC[C@@H](O)CN(CCC)Cc1c(-c2ccccc2)nn(C)c1Oc1ccc(F)cc1 | -17% | 2.14
COc1ccc(C2=NN(C(=O)CN(CCN3CCOCC3)C(=O)C3CCC3)[C@H](c3ccc(OC)cc3)C2)cc1 | -2% | 0.25
Cc1cccc(NCCc2ncc(C)s2)n1 | -3% | 0.42
Cc1ccccc1-c1cc2n(C)c(C)c(CCC(=O)NCc3ccc4c(c3)OCO4)c(=O)n2n1 | -10% | 1.31
CCCN1C(=O)CN(S(=O)(=O)c2ccc(OC)cc2)C[C@@]1(C)C(=O)NCc1ccc(F)cc1 | -12% | 1.46
COc1cc(N[C@H]2CCCN(Cc3cncn3C)C2)cc(OC)c1 | -4% | 0.5
Cc1nc2c(NCC3(N4CCOCC4)CCCCCC3)ncnc2o1 | -12% | 2.45
CN1C(=O)[C@]2(CCN(C(=O)C3CCCC3)C2)c2ccccc21 | -9% | 1.14
C[C@@H](CNc1ncc(Cl)cn1)c1nncn1C | 8% | -1.16
COCC(=O)NC1CN(S(=O)(=O)c2cc(F)cc(F)c2)C1 | -2% | 0.4
c1ccc2c(c1)OC[C@@H](c1noc(Cc3cc(C4CC4)no3)n1)O2 | -6% | 1.24
O=C(NCc1ccco1)N1CCN(c2nc3cc(F)ccc3n3cccc23)CC1 | 8% | -1.29
CCC1CN(S(=O)(=O)CCC(C)(C)S(C)(=O)=O)C1 | -9% | 0.9
CNC(=O)COc1cccc(CC(=O)NCc2ccnc(-n3ccnc3)c2)c1 | 17% | -2.2

SMILES | % Inhibition | Z score
O=C(Nc1ccncc1)N1CC=CC12CCCCC2 | 0% | 0.01
O=C(C[C@H]1CCCOC1)NCCCn1ccnn1 | 4% | -0.5
Cc1cccc2c(=O)n(CCC(=O)Nc3ccc(NC(=O)c4ccco4)cc3)cnc12 | -11% | 2.1
CCN(CCN1CCOCC1)C(=O)c1cnn[nH]1 | 4% | -0.7
COc1ccc(CNC(=O)CCc2ccc3nc(NC(C)=O)sc3c2)c(OC)c1 | -15% | 1.51
CNC(=O)c1sc2ccc(NC(=O)c3cnccn3)cc2c1OC | -9% | 1.09
CCC(=O)Nc1ccc(C)cc1-c1nc2ccccc2n(CC(=O)Nc2ccccc2C)c1=O | -4% | 0.65
CS(=O)(=O)c1ccc(OC[C@H]2C[C@@H](NC(=O)Nc3ccccc3)[C@H](O)[C@@H]2O)cc1 | -14% | 1.78
O=C1[C@@H]2C[C@@H](CN2Cc2ccc3c(c2)OCCO3)N1c1ccccc1Cl | 7% | -0.99
Cc1cc(C(=O)NCCNC(=O)c2cc(C)oc2-c2ccccc2)c(-c2ccccc2)o1 | -8% | 0.98
Cc1ccc2nccc(N(C)Cc3nc(-c4ccccn4)no3)c2c1 | -15% | 2.77
Cc1c(C(=O)NCc2cccs2)cnn1[C@H]1CCS(=O)(=O)C1 | -4% | 0.63
O=C(CN1CCCCCC1)N1CCC2(CC1)CC(=O)N(Cc1ccccc1)C2 | -2% | 0.25
COc1ccc(OC)c(CNC(=O)CCc2nc(N3CCCCC3)c3c(C)noc3n2)c1 | -8% | 1.31
CC(C)(COc1ncc(Cl)cc1Cl)NC(=O)CC#N | -8% | 1.23
O=C(Nc1cn[nH]c1)C(=O)Nc1ccc(F)c(F)c1F | 34% | -4.62
CN1CCc2ccc(S(=O)(=O)NCCN3CCc4ccccc4C3)cc21 | -9% | 1.28
COc1ccc2c(c1)C(NC(=O)[C@H]1CCCO1)CCN2C(=O)[C@H]1CCCO1 (stereo not given in full) | -6% | 0.82
COc1c[nH]c(COCC2CCCCCC2)cc1=O | 13% | -1.66
